# Among all 310,000 compounds or so, about 2,200 (0.71%) showed an effect of 50% or more. Effects have a minus sign here. Some of the results follow.
# Biological target: human ether-à-go-go-related gene (hERG) potassium channel (human, UniProt Q12809)
# Assay: primary screen, population patch clamp on CHO cells stably expressing hERG
# human ether-à-go-go-related gene (hERG) potassium channel, sequence (Q12809 whole entry, looked up): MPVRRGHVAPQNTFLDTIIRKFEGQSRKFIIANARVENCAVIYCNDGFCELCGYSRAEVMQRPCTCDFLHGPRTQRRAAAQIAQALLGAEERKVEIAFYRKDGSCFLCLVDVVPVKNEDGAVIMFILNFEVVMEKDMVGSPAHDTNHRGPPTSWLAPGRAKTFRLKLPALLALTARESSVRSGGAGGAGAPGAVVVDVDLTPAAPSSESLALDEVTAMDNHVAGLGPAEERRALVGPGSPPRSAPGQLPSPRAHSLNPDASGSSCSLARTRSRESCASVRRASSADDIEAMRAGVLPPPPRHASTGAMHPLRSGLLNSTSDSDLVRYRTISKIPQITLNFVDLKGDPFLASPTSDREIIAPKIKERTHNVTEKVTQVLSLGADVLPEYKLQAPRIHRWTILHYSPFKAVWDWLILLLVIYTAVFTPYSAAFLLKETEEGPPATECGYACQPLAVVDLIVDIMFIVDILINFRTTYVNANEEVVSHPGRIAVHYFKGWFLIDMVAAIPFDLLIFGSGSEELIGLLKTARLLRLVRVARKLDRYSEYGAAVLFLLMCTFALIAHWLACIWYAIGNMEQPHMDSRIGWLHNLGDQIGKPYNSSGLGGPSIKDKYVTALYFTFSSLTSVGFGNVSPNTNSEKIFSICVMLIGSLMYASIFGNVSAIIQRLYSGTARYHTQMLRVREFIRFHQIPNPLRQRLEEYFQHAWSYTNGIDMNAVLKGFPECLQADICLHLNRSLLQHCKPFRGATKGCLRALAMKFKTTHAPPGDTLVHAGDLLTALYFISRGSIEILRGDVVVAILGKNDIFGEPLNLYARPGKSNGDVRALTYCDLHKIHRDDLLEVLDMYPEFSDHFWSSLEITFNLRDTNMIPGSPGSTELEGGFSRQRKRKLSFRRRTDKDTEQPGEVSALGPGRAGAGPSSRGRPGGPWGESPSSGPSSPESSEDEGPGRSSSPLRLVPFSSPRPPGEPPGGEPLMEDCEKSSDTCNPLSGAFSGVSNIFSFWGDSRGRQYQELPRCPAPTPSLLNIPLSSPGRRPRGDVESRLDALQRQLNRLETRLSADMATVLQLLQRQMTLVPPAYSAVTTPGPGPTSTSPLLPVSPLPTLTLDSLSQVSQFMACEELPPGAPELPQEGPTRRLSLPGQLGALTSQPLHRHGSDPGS
row,SMILES,"hERG current change (%, negative = inhibition) at 1uM [%]"
1,CCN(CC(=O)NCc1ccc(Cl)cc1)C(=O)Cc1ccccc1[N+](=O)[O-],-29.5
2,COc1ccccc1C(=O)Nc1ccnn1C1CCN(Cc2ncc[nH]2)CC1,6
3,O=C(CCc1nnc(CCc2ccccc2)o1)NC(c1cccnc1)C(F)(F)F (stereo not drawn),-0.569
4,COc1ccc(CNC(=O)N2CCN(c3ccccc3)CC2)cc1,14.9
5,Cc1ccccc1OCCCN1CCOCC1,10.1
6,COc1ccc(/C=c2\sc3nc(=O)c(C)nn3c2=O)c(OC)c1,15.2
7,Cc1cc(NC(=O)CCCn2nc([N+](=O)[O-])cc2C)no1,10.8
8,CSCCC(NC(=O)COc1ccccc1)C(=O)OCC(=O)c1cc2ccccc2o1 (stereo not drawn),14.2
9,CC(C)NC(=O)CNc1ccc(C(F)(F)F)cc1[N+](=O)[O-],12.3
10,Cl.Clc1ccc(CSc2nnc([C@@H]3CCCN3)o2)cc1Cl,13.8
11,COc1cc(S(=O)(=O)NC2CCCC2)c(OC)cc1Cl,-1.45
12,CC1CC(C)CN(C(=O)c2ccccc2Nc2ccc(SC(F)F)cc2)C1 (stereo not drawn),8.82
13,c1ccc(-c2cnc(CN3CCN(c4ccccc4)CC3)o2)cc1,12.4
14,CSc1cccc(NC(=S)NCCCN2CCN(c3ccc(F)cc3)CC2)c1,-3.39
15,Cc1c(OCC(=O)N[C@@H](Cc2ccccc2)C(=O)O)ccc2c1oc(=O)c1ccccc12,-7.6
16,O=S(=O)(c1cc(Cl)cc(Cl)c1O)N1CCC2(CC1)OCCO2,9.3
17,CCc1ccc(NC(=S)N2CCC(NC(=O)c3ccccc3)CC2)cc1,5.15
18,O=C(CNC(=O)c1cccs1)NCC(=O)OCc1c(F)cccc1Cl,13.6
19,Clc1ccccc1-c1nnc2sc(-c3cccs3)nn12,3.6
20,COc1cc(/C=N/NC(=O)c2cccc(S(=O)(=O)N3CCCC3)c2)ccc1O,2.16
21,O=c1[nH]nc(N/N=C/c2ccc(Cl)cc2Cl)c(=O)[nH]1,7.03
22,COC(=O)CS(=O)(=O)c1ccsc1C(=O)Nc1ccc(F)cc1,11.8
23,O=C(Nc1ncccc1O)c1cccc(S(=O)(=O)N2CCCC2)c1,5.92

row,SMILES,"hERG current change (%, negative = inhibition) at 1uM [%]"
1,Cc1c(CCC(=O)O)c(=O)oc2cc(OCc3cccc(Cl)c3)ccc12,14.5
2,Nc1ccc(C(=O)[O-])cc1.O.[Na+],8.37
3,CC#CC(=O)N1CCC(C(=O)Nc2ccc(Oc3ccccc3)nc2)CC1,11.4
4,OC(CN1CCN(C(c2ccccc2)c2ccccc2)CC1)c1ccccc1 (stereo not drawn),2.45
5,CCC(C)(C)NC(=O)C(c1ccco1)N(C(=O)c1csnn1)c1cccc(F)c1 (stereo not drawn),2.6
6,Cc1ccc(CN(c2ccc(C(=O)NCc3cccnc3)cc2)S(C)(=O)=O)cc1,1.51
7,CCCn1c2ccccc2c2nc3ccccc3nc21,15.5
8,CSc1ncccc1C(=O)OCC(=O)c1cccs1,9.58
9,CCCc1nnc(-c2cc(OC)c(OC)c(OC)c2)o1,12
10,CSc1nsc(/C=C/Nc2ccc(F)cc2)c1C#N,14.7
11,Cc1ccc(NC(=O)COc2ccccc2CNC(C)(C)CC(C)(C)C)cc1,-4.81
12,COc1ccc(C(=O)Cn2nnc(-c3ccccc3NC(=O)C(F)(F)F)n2)cc1,7.68
13,COc1ccc2nc(NC(=O)CSc3nnc(C)n3N)sc2c1,9.34
14,COc1ccc(N=C2SC(C(=O)N3CCN(c4ccc([N+](=O)[O-])cc4)CC3)CC(=O)N2C)cc1 (stereo not drawn),-22.4
15,CC(Oc1ccc(Cl)cc1)c1ccnn1S(C)(=O)=O (stereo not drawn),10.5
16,CSc1ccc(Cl)c(C(=O)NNC(=O)c2csc(N3CCOCC3)n2)c1,11.5
17,Cc1nc(-c2ccc(S(=O)(=O)N3CCN(c4ccccc4)CC3)cc2)co1,14.5
18,Cc1nonc1OCCN1CCN(c2ccc([N+](=O)[O-])cc2)CC1,-100
19,Nn1cnc2c(c1=O)C1(CCCCC1)Cc1ccccc1-2,2.28
20,COc1ccccc1NC(=O)CNC(=O)c1ccc(Br)o1,15
21,CSCc1ccc(C(=O)Nc2cc(C)cc(C)c2)cc1,7.3
22,CCOCCCNS(=O)(=O)c1ccc2c(c1)OCCO2,-8.73
23,FC(F)(F)c1nc(N2CCCC2)ncc1-c1nnnn1-c1ccc(Cl)cc1,8.31

row,SMILES,"hERG current change (%, negative = inhibition) at 1uM [%]"
1,CCN(CC)c1ccc(CNc2nc3ccccc3n2C)cc1,-15.5
2,CCCn1c(N2CCOCC2)nc2c1c(=O)[nH]c(=O)n2C,1.18
3,CCOC(=O)Cc1nn(C)c(=O)c2ccccc12,11.2
4,Cl.O=C(NCCOC(=O)c1ccc(C(=O)OCCNC(=O)c2cccnc2)s1)c1cccnc1,9.64
5,CC(C)(C)N(Cc1ccccc1)C(=O)COC(=O)CNC(=O)c1ccco1,4.45
6,O=C(NC(=S)Nc1ccc([N+](=O)[O-])cc1O)C1CCCCC1,9.74
7,COc1ccc(NC(=O)c2ccc(F)cc2)cc1S(=O)(=O)Nc1cc(C)ccc1Br,3.82
8,CC1CCCCN1C(=S)Nc1ccc2nc3n(c(=O)c2c1)CCCCC3 (stereo not drawn),-27.4
9,O=C(CS(=O)(=O)Cc1ccccc1)NCC1CCCO1 (stereo not drawn),10.4
10,CCCCNC(=O)COC(=O)CNC(=O)c1cc(Cl)cc([N+](=O)[O-])c1,12.8
11,O=C(COc1coc(CN2CCc3ccccc3C2)cc1=O)Nc1ccc(F)cc1F,3.79
12,Cc1c(C(c2cccs2)c2c(C)n(C)n(-c3ccccc3)c2=O)c(=O)n(-c2ccccc2)n1C,17.6
13,O=C(CSc1nnc(NC(=O)c2ccccc2F)s1)Nc1ccccc1F,22.8
14,C=CCOC(=O)C(=O)/C=C/c1coc2ccccc2c1=O,9.67
15,O=C(CN1C(=O)CCSc2ccc(S(=O)(=O)N3CCCC3)cc21)Nc1ccccc1,9.81
16,O=C(/C=C/c1ccoc1)c1ccccc1O,3.71
17,COc1cc(C(=O)O)c2c(c1C)OC(=O)c1c(C)cc(O)c(C=O)c1O2,22.5
18,CCOc1ccccc1N(C)C(=O)c1sc2ncn(CC(=O)N3CCCCC3C)c(=O)c2c1C (stereo not drawn),7.39
19,Cn1c(Cl)c(/C=N/OC(=O)C(C)(C)C)c2ccccc21,8.34
20,O=C(Nc1ccncc1)Nc1cccc(F)c1,12.3
21,Nc1ccc(C#Cc2ccc3sc4ccccc4c(=O)c3c2)cc1,11.5
22,O=C(CN1C(=O)NC(Cc2c[nH]c3ccccc23)C1=O)Nc1ccc(F)c(F)c1F (stereo not drawn),1.82
23,CCOc1ccc(CN(C)CC(=O)NCc2ccccc2)cc1,-82.3

row,SMILES,"hERG current change (%, negative = inhibition) at 1uM [%]"
1,C/C(=N\N=C(N)N)c1ccc(C)c(C)c1,16
2,CC(=O)c1ccc(NC(=O)CCc2nc3sc4c(c3c(=O)[nH]2)CCCC4)cc1,11
3,CCOc1ccc(C(C)NC(=S)NC2CCCCC2)cc1 (stereo not drawn),-0.0905
4,CCc1ccccc1N(C(=O)CNC(=O)c1ccco1)C(C(=O)NC1CCCC1)c1cccnc1 (stereo not drawn),22.7
5,Cc1ccc2ccc3cccnc3c2n1,11.9
6,CCO/C=C1/C(=O)N(c2ccc(OC)cc2)C(=O)c2ccccc21,14.6
7,COc1cc(/C=C/C(=O)N2CCN(C(=O)/C=C/c3cc(OC)c(OC)c(OC)c3)CC2)cc(OC)c1OC,6.29
8,CCOC(=O)c1cnn(Cc2ccccc2)c1N,13.7
9,COc1cccc(C(=O)Nc2ccc(-c3nc4ccccc4o3)c(O)c2)c1,14
10,O=C(/C=C/c1ccccc1Cl)Nc1ccc(-c2nnc3n2CCCCC3)cc1,5.92
11,CCOc1ccc(-n2nnc3c(=O)n(C/C=C/c4ccccc4)cnc32)cc1,13
12,Cn1cnnc1SCC(=O)N1CCN(C(=O)c2ccco2)CC1,9.85
13,NC(=O)Cn1cc(C(=O)COc2ccccc2)c2ccccc21,12.4
14,COc1ccc(CNc2ncc(-c3ccc(F)cc3)n2C)c2ccccc12.O=C(O)C(=O)O,7.04
15,O=C(Nc1cccc(C(=O)O)c1)/C(=C\c1ccc2c(c1)OCO2)NC(=O)c1ccccc1,3.01
16,Oc1ccc(N=Nc2ccc3c(c2)OCCO3)c(O)c1,9.42
17,N#Cc1cccc(NC(=O)COC(=O)c2ccccc2Sc2ccccc2C#N)c1,9.28
18,CCN(CC(=O)Nc1ccc(OC)cc1)C(=O)CSCc1c(C)noc1C,4.8
19,O=C(Nc1ccccc1N1CCOCC1)c1ccc2ccccc2n1,12.4
20,Cc1ccccc1OCCSc1nnc(-c2cccnc2)n1N,13.7
21,CN(C)N=Nc1nc[nH]c1C(N)=O,7.82

# — article PMC4336329 (PLoS ONE, 2015)
